Laboratory results reported in patent publication US20250188160A1 (ASKGENE PHARMA, published 2025).
Numbering of substitutions follows the chain as printed. Blank lines part the entries; values can stand above or below the binder they belong to.

Key:
[1] = molecular target: T1, Human Ang1 protein (R&D System) (human, UniProt Q15389 20-498, limits assumed); assay: Octet Red96 (BLI); chimeric molecule on anti-human IgG Fc sensors, ANG1 in solution; 1:1 model, global fit
T1 construct: Bought protein
T1 sequence (looked up): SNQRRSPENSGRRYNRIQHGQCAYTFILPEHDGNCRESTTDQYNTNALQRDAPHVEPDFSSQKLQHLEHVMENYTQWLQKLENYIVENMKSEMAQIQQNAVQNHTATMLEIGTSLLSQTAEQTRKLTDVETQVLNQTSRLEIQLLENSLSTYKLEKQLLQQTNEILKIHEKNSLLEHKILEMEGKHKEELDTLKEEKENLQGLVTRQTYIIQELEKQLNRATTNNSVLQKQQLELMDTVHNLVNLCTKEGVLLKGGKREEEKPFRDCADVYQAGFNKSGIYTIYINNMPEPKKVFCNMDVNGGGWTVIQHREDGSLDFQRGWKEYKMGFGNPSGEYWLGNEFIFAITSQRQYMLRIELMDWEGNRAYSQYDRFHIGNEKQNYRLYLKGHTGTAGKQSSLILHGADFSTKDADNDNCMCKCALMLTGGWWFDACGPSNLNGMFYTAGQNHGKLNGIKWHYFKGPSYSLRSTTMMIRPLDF

[2] = molecular target: T2, Human Ang2 protein (R&D System) (human, UniProt O15123 19-496, limits assumed); assay: Ang-2 blocking assay (inhibition of the binding of Ang-2 to Tie-2), FIG. 5
T2 construct: Bought protein; also called angiopoietin-2
T2 sequence (looked up): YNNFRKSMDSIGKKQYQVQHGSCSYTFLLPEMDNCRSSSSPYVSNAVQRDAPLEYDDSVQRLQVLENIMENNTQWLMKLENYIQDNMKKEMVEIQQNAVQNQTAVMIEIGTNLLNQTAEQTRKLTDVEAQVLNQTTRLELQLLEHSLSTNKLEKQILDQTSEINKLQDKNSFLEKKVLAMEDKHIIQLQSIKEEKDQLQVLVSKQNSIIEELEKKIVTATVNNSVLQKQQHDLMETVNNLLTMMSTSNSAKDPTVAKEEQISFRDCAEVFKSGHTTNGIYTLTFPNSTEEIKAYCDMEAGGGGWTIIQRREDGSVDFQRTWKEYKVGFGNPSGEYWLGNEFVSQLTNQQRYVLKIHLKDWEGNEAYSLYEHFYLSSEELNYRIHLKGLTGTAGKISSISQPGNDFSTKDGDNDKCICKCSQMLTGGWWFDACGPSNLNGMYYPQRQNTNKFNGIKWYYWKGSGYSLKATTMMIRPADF

Kd [1]: 1.73 nM
B1: AMD-B (bispecific antibody, human IgG1, kappa)
heavy: AQQKYQPLDELDKTLYDQFMLQQGGGGGSGGGGSGGGGSEVQLVESGGGLVQPGGSLRLSCAASGYTFTNYGMNWVRQAPGKGLEWVGWINTYTGEPTYAADFKRRFTFSLDTSKSTAYLQMNSLRAEDTAVYYCAKYPHYYGSSHWYFDVWGQGTLVTVSS[letters of human IgG1 constant region omitted]
light: DIQMTQSPSSLSASVGDRVTITCSASQDISNYLNWYQQKPGKAPKVLIYFTSSLHSGVPSRFSGSGSGTDFTLTISSLQPEDFATYYCQQYSTVPWTFGQGTKVEIKRTVAAPSVFIFPPSDEQLKSGTASVVCLLNNFYPREAKVQWKVDNALQSGNSQESVTEQDSKDSTYSLSSTLTLSKADYEKHKVYACEVTHQGLSSPVTKSFNRGEC
notes: Peptide-antibody fusion

IC50 [2]: ~0.078 nM
B2: chimeric molecule 712-O2 (bispecific antibody, human IgG1, kappa)
heavy: EVQLVESGGGLVQPGGSLRLSCAASGYDFTHYGMNWVRQAPGKGLEWVGWINTYTGEPTYAADFKRRFTFSLDTSKSTAYLQMNSLRAEDTAVYYCAKYPYYYGTSHWYFDVWGQGTLVTVSSASTKGPSVFPLAPSSKSTSGGTAALGCLVKDYFPEPVTVSWNSGALTSGVHTFPAVLQSSGLYSLSSVVTVPSSSLGTQTYICNVNHKPSNTKVDKKV[letters of human IgG1 Fc with changes omitted]AGGGGSGGGGSGGGGSAQQKYQPLDELDKTLYDQFMLQQGLE
light: B1 light with M4L
notes: Peptide-antibody fusion; also called ASKB712-O2

Kd [1]: 1.37 nM
B3: AMD-D (bispecific antibody, human IgG1, kappa)
heavy: AQQKYQPLDELDKTLYDQFMLQQGLEGGGGSGGGGSGGGGSEVQLVESGGGLVQPGGSLRLSCAASGYTFTNYGMNWVRQAPGKGLEWVGWINTYTGEPTYAADFKRRFTFSLDTSKSTAYLQMNSLRAEDTAVYYCAKYPHYYGSSHWYFDVWGQGTLVTVSS[letters of human IgG1 constant region omitted]
light: B1 light
notes: Peptide-antibody fusion; Two copies of L1-15 (with LE)

Kd [1]: 1.07 nM
B4: AMD-E (bispecific antibody)
heavy: EVQLVESGGGLVQPGGSLRLSCAASGYTFTNYGMNWVRQAPGKGLEWVGWINTYTGEPTYAADFKRRFTFSLDTSKSTAYLQMNSLRAEDTAVYYCAKYPHYYGSSHWYFDVWGQGTLVTVSS[letters of human IgG1 constant region omitted]GGGGGAQQEECEWDPWTCEHMGGGGSGGGGSGGGGSATHQEECEWDPWTCEHMLE
light: B1 light

IC50 [2]: ~0.033 nM
B5: chimeric molecule 712-O (bispecific antibody, human IgG1, kappa)
heavy: AQQKYQPLDELDKTLYDQFMLQQGLEGGGGSGGGGSGGGGSEVQLVESGGGLVQPGGSLRLSCAASGYDFTHYGMNWVRQAPGKGLEWVGWINTYTGEPTYAADFKRRFTFSLDTSKSTAYLQMNSLRAEDTAVYYCAKYPYYYGTSHWYFDVWGQGTLVTVSSASTKGPSVFPLAPSSKSTSGGTAALGCLVKDYFPEPVTVSWNSGALTSGVHTFPAVLQSSGLYSLSSVVTVPSSSLGTQTYICNVNHKPSNTKVDKKV[letters of human IgG1 Fc with changes omitted]
light: B1 light with M4L
notes: Peptide-antibody fusion; also called ASKB712-O
